From the supplement of paper PMC3334620
Whole data set: some 33,000 sequences, median “E-score (-0.5 to 0.5)” near -0.012, cut for the highest 2% near 0.29. The list shows a part of the results.

Target: T1, Ybr033w (UniProt P38073)
T1 sequence: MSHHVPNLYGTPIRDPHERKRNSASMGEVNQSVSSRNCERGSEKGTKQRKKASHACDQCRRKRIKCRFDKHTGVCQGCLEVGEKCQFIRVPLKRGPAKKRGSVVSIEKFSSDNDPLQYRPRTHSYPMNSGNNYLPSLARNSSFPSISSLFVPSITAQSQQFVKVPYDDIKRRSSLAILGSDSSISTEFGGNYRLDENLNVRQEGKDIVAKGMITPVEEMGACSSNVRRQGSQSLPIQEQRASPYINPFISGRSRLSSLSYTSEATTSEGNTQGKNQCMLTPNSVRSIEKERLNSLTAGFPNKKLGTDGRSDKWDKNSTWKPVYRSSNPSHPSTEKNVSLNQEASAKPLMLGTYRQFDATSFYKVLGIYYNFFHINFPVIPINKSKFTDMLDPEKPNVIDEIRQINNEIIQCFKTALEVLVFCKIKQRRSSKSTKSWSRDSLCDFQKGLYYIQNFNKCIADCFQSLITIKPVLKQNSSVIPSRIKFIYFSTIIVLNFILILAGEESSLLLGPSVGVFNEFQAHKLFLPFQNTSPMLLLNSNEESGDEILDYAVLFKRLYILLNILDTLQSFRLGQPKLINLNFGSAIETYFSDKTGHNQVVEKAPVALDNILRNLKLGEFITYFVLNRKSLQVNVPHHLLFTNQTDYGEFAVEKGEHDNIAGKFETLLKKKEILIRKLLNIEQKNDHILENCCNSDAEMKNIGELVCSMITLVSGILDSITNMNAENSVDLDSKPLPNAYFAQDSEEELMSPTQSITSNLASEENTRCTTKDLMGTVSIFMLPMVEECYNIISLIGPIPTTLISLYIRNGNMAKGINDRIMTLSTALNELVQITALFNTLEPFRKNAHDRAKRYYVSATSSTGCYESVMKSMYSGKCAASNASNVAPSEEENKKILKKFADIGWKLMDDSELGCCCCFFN
Test: PBM E-score (8-mer binding enrichment) (E-score (-0.5 to 0.5)); higher = stronger / more preferred TF binding; most listed sequences are background and not binding sites
Settings: protein concentration: 200 nM; construct: GST-full length
In short: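 GST-tagged yeast TFs (full-length or DNA-binding domain) were made by PURExpress in vitro transcription/translation and applied at about 100-200 nM to universal all-10-mer Agilent arrays. The arrays were made double-stranded by primer extension, on fresh or once-stripped slides. Bound protein was detected with fluorescent anti-GST, and scans were normalised with masliner. Each ungapped eight-base word, pooled with its reverse complement, received an E-score (modified Wilcoxon-Mann-Whitney statistic) from the Universal PBM Analysis Suite.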

| Sequence | PBM E-score |
| --- | --- |
| CCTCGTGA | -0.153 |
| GTTAAGAA | 0.0266 |
| AGCTAGTG | 0.0615 |
| ATTCACGG | -0.0782 |
| CGGTGAGC | -0.26 |
| ATAGTGTC | 0.108 |
| CCGCTCGA | -0.0347 |
| AACCGAAC | -0.0481 |
| CGCAAGTA | 0.072 |
| CCTGTCTA | -0.128 |
| CCTGGCGC | -0.123 |
| AGTTCACG | -0.00254 |
| CCGAGAAG | -0.0293 |
| CCGACAAA | 0.161 |
| AAGTTCAC | -0.0124 |
| CGCTTCGC | -0.0985 |
| CAACTCCC | -0.0757 |
| CAAAATCG | 0.16 |
| GATTACCC | 0.0608 |
| GATAGGCC | -0.185 |
| ACGTCCCG | -0.356 |
| CCTAAGGC | -0.375 |
| GACCCGAA | -0.106 |
| AGTTCTGG | 0.14 |
| CAATCATC | 0.103 |

| Sequence | PBM E-score |
| --- | --- |
| GCGAGACA | -0.0827 |
| GATTCGCA | 0.0873 |
| ACCATGCA | -0.102 |
| CAATCATG | -0.0368 |
| AAGCCCAC | -0.126 |
| CTTCGCCA | -0.19 |
| ACCGCCAT | -0.0145 |
| CTGGCCGA | -0.111 |
| ACAATGGC | -0.113 |
| GTACTGAA | 0.173 |
| AGACTTGC | -0.081 |
| CGGATCCC | -0.135 |
| ACGCGTCC | -0.313 |
| AGCATTTA | -0.0525 |
| CTGGCAGC | -0.251 |
| CAAGCGCG | -0.0792 |
| GGCTAATA | 0.157 |
| AGAAAGGG | -0.113 |
| CGAGATCC | -0.0705 |
| ACAAGCTG | -0.123 |
| AGGAGGTG | -0.271 |
| ATCGAGAA | 0.241 |
| GCGTAGCC | -0.0956 |
| CATGGTCA | -0.0109 |
| CACCTAAA | 0.025 |

| Sequence | PBM E-score |
| --- | --- |
| AAGCAGTA | -0.0835 |
| CTAATTCC | 0.0934 |
| AGTCACGG | -0.025 |
| AGGCGCAT | -0.0781 |
| CACACGCC | -0.0219 |
| CGCTTTGC | -0.0369 |
| GTCTTCTA | 0.0859 |
| GGGACCTA | -0.267 |
| AGAGTCTA | -0.16 |
| CGCACACG | -0.153 |
| ATTGTGAC | 0.0813 |
| GTCAAGAA | 0.146 |
| ATTTAAAA | 0.169 |
| CTGAGGGA | -0.121 |
| GCAGTTTA | -0.0637 |
| GTACGCAA | 0.0124 |
| CCCAAGTA | -0.0495 |
| CCCGGCAC | -0.288 |
| AATCAAGG | 0.0922 |
| CTAGCAGA | 0.0468 |
| AGCACCGC | -0.231 |
| AGCTGAAG | -0.0473 |
| AGGTGTTG | -0.152 |
| TAGAAGCA | 0.0548 |
| GGAGTGAA | 0.0658 |

| Sequence | PBM E-score |
| --- | --- |
| GTGTCGGA | -0.0465 |
| TCATTCAA | 0.151 |
| AACCATAA | 0.127 |
| ACCGCACC | -0.149 |
| CAATAATA | 0.292 |
| CCCAAACC | 0.0285 |
| CAGCCTTA | -0.128 |
| AAGTGGAA | 0.0301 |
| CGAACCTC | -0.0151 |
| AACGGTGC | -0.268 |
| ACTGGGCC | -0.134 |
| GGGAATAA | 0.355 |
| ATAAAAAG | 0.316 |
| AAAGCGAC | 0.0114 |
| CCTATACA | 0.154 |
| ACGGGGGA | -0.131 |
| ACGACCCG | -0.231 |
| CCATCGCC | -0.218 |
| CACGGTGC | -0.283 |
| GGATTTGA | -0.0289 |
| CGTCCCCA | -0.169 |
| CCGCTATC | -0.0295 |
| AATACGCC | -0.032 |
| AAAGCACT | 0.155 |
| CTCTGCAC | -0.262 |

| Sequence | PBM E-score |
| --- | --- |
| ACAAGGAT | 0.123 |
| GAATAATA | 0.395 |
| GACGGTTA | -0.192 |
| CTGGTGAA | -0.0462 |
| ACGGAACC | -0.0347 |
| CTACGTAC | 0.139 |
| CATTATCG | 0.0618 |
| ATCGGTCA | 0.0471 |
| GGTATCAC | -0.0801 |
| GGCATCAC | -0.144 |
| ACAGATAC | 0.264 |
| ATACACAT | 0.273 |
| GTACAGCA | 0.102 |
| AATTCGGT | 0.243 |
| ACCTTAAA | -0.0552 |
| AGCCTAGG | -0.192 |
| AGGTTTTC | 0.166 |
| GTCACCTA | -0.287 |
| GTCAGTCA | 0.0403 |
| CTGTATAC | 0.108 |
| ACGATTGC | 0.158 |
| ACTTAATC | 0.275 |
| CTGCACCC | -0.204 |
| CTATTTTC | 0.284 |
| CGAGGAAA | 0.177 |

| Sequence | PBM E-score |
| --- | --- |
| ATGACGGC | -0.0175 |
| GCGCTGAC | -0.0039 |
| CATATACA | 0.324 |
| ACCGAGCT | -0.165 |
| GGATGCCC | -0.246 |
| CTAGGTAC | -0.0397 |
| CATCCCAG | -0.109 |
| CGCAGACA | 0.0597 |
| CATAGTGA | 0.0482 |
| ATGGTCAA | 0.198 |
| ATATTCCA | 0.395 |
| CGCTAAAG | 0.0341 |
| AAAAGTCA | 0.0923 |
| AAGGTACA | 0.0441 |
| CAAAGAGA | -0.0535 |
| ACTTGTGC | -0.0733 |
| TCGTTGAA | 0.122 |
| ATAACTCC | 0.0699 |
| AAATCCTC | 0.0918 |
| GCTGGCCC | -0.417 |
| CTTTACAC | 0.166 |
| CAGCAGAG | -0.167 |
| AAGCGTCC | -0.248 |
| AGATATGC | 0.0293 |
| CCCGTAAA | 0.0906 |

| Sequence | PBM E-score |
| --- | --- |
| CATATTAG | 0.202 |
| AGGCTCCA | -0.0867 |
| GACCTTCC | -0.151 |
| GTATGTAA | 0.222 |
| GACCGGTC | -0.181 |
| ACACGGAC | 0.0335 |
| CACAATTA | 0.11 |
| GCGGCCAA | -0.154 |
| ATTCCTGG | -0.0389 |
| GAAGGGGA | -0.126 |
| ATTACTAG | -0.0823 |
| ACATGGGA | 0.0315 |
| GGCTTGTA | -0.0511 |
| GTAATCAC | -0.0232 |
| AGCGCACA | -0.0519 |
| ATCGGGAA | 0.0829 |
| CGTAGTTA | 0.0219 |
| CCGATCAG | -0.113 |
| TACCCAGA | 0.0301 |
| CACGCGTG | -0.0893 |
| ACGTTAAT | 0.124 |
| CACCGAAC | -0.112 |
